The campaign covered roughly 390,000 compounds. About 150 (0.038%) were called active. This list was built around the results that the source calls inconclusive (neither active nor inactive); the mix of calls is not that of the screen. The call rests on the fitted dose curve; in most records, active means well fitted inhibition curve with a large enough effect; inconclusive means small, poorly fitted or top-dose-only effect; inactive means no such curve, though single readings can be large or run the other way. Potencies of inconclusive entries are doubtful fits and often do not repeat.
These molecules were tested against Regulator of G-protein signaling 4 (Homo sapiens) (UniProt P49798) (assay: Inhibitors of Regulator of G Protein Signaling (RGS) 4: qHTS). Settings: Transcreener GDP fluorescence polarization, RGS4-accelerated GTP hydrolysis; series mostly up to 114 µM.
UniProt P49798, sequence (P49798 whole entry, looked up): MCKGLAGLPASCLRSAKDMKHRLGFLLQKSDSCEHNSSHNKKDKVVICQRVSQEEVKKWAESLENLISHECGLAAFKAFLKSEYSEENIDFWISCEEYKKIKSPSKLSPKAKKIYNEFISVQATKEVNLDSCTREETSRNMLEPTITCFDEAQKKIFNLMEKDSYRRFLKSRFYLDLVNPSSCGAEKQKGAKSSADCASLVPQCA
In short: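 MLSMR compounds (23 nl, pin-transferred) preincubated 10 min at room temperature with a 500nM (2x) first reagent, then RGS4 at 900nM (2x) plus Transcreener GDP mix added; fluorescence polarization (620/688 nm) read before and after 90 min at 30 °C.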
For `O=C1C2=C(Nc3ccccc3SC2c2ccco2)c2ccccc21` (stereo not given), the Potency was “inactive”. For `O=C(O)c1ccc(/C=C2\COc3ccccc3C2=O)cc1`, the Potency was inconclusive: 70.8 µM [inhibitor, partial curve, poor fit]. For `Cc1ccc(C=C2C(=O)c3ccccc3C2=O)s1`, the Potency was “inactive”. With `Cc1cc(N2C(=O)C(O)=C(C(=O)c3ccc(C)o3)C2c2ccc(OCc3ccccc3)cc2)no1` (stereo not given) the Potency was inconclusive: 79.4 µM [inhibitor, partial curve, poor fit]. In the case of `CC(=O)c1sc2nc(SCC(=O)N3CCCCC3)[nH]c(=O)c2c1C`, the Potency is reported as inconclusive: 79.4 µM [inhibitor, partial curve, poor fit]. With `O=C(O)c1cc(S(=O)(=O)N(Cc2ccccc2)c2ccc(Cl)cc2)ccc1Cl` the Potency was “inactive”. `S=c1nc(-c2ccccc2Br)[nH][nH]1` was tested, and the Potency was inconclusive: 50.1 µM [inhibitor, partial curve, poor fit]. `CC1(C)CC2(CC(c3ccccc3F)c3ccc(O)c(O)c3O2)NC(=S)N1` (stereo not given) was tested, and the Potency was inconclusive: 31.6 µM [inhibitor, full curve, poor fit]. For `O=C(NC(=S)NCC1COc2ccccc2O1)c1ccccc1` (stereo not given), the Potency was “inactive”. In the case of `CCCN(C(=O)COC(=O)CSc1ccc([N+](=O)[O-])cc1)C1CCS(=O)(=O)C1` (stereo not given), the Potency is reported as inconclusive: 28.2 µM [inhibitor, full curve, poor fit]. With `CCCS(=O)(=O)N1CCCC(C(=O)NCCCN2CCN(c3ccccc3F)CC2)C1` (stereo not given) the Potency was “inactive”. `Cc1ccc(S(=O)(=O)NNC(=O)CCC(=O)Nc2ccc(C)c(C)c2)cc1` was tested, and the Potency was inconclusive: 79.4 µM [inhibitor, partial curve, poor fit]. In the case of `COc1ccc(-c2cc(C(=O)Nc3cccc(S(=O)(=O)NCc4ccco4)c3)c3ccccc3n2)cc1OC`, the Potency is reported as “inactive”. In the case of `COc1cccc(CN(C)C(=O)CN2C(=O)NC3(CCCc4ccccc43)C2=O)c1` (stereo not given), the Potency is reported as “inactive”. In the case of `COc1ccccc1C1CN(c2ccccc2)N=C1c1cccs1` (stereo not given), the Potency is reported as “inactive”. With `O=C(c1cc(F)ccc1F)C1CCCN(Cc2cccn2-c2ccccn2)C1` (stereo not given) the Potency was “inactive”. `COc1cccc(OCC(=O)NN=C2c3ccccc3-c3ccccc32)c1` was tested, and the Potency was inconclusive: 79.4 µM [inhibitor, partial curve, poor fit]. In the case of `O=C(c1ccc(Br)cc1)c1coc2ccc(O)cc12`, the Potency is reported as “inactive”. In the case of `CCCCC(=O)NNC(=S)NC(=O)C(c1ccccc1)c1ccccc1`, the Potency is reported as inconclusive: 44.7 µM [inhibitor, partial curve, poor fit]. In the case of `CCCOc1ccc(Cc2nn3c(=O)/c(=C/c4ccco4)sc3nc2=O)cc1`, the Potency is reported as inconclusive: 79.4 µM [inhibitor, partial curve, poor fit]. In the case of `Cc1csc(NC(=O)CNC(=O)OCc2ccccc2)n1`, the Potency is reported as inconclusive: 79.4 µM [inhibitor, single point]. With `CCOC(=O)c1c(NC(=O)CC)sc(C(C)=O)c1C` the Potency was inconclusive: 50.1 µM [inhibitor, partial curve, poor fit]. `O=C(Oc1ccnc2cc(Cl)ccc12)N1CCCCCC1` was tested, and the Potency was “inactive”. In the case of `CCCn1c(SCC(=O)N2CCCCC2)nnc1C(C)C`, the Potency is reported as inconclusive: 44.7 µM [inhibitor, partial curve, poor fit]. For `Cc1cccc2c1N(CCCOc1ccc(C(C)(C)C)cc1)C(=O)C2=O`, the Potency was inconclusive: 50.1 µM [inhibitor, partial curve, poor fit]. For `Cc1ccc(-n2nc3c(N4CCC(C(=O)NCCc5ccccc5C)CC4)nnc(C)c3c2C)cc1`, the Potency was “inactive”. In the case of `CC(C)OC(=O)CSc1nc(N)c(C#N)c(-c2ccco2)c1C#N`, the activity change, negative = inhibition is reported as inactive: -10.9% [at 11.4 µM]. In the case of `O=c1[nH]nc(CNc2ccc(O)cc2)c2ccccc12`, the Potency is reported as inconclusive: 56.2 µM [inhibitor, partial curve, poor fit]. In the case of `CN1C(=O)/C(=C/c2ccc(-c3ccccc3[N+](=O)[O-])o2)SC1=Nc1ccc(Cl)c(C(=O)O)c1`, the Potency is reported as inconclusive: 89.1 µM [inhibitor, partial curve, poor fit]. For `CCCCC1C(=O)N(c2ccccc2)N(c2ccccc2)C1=O`, the Potency was inconclusive: 37.7 µM [inhibitor, single point]. In the case of `CC(C)(C)NC(=O)CSc1nc2ccccc2n1-c1ccccc1`, the Potency is reported as inconclusive: 89.1 µM [inhibitor, single point]. `O=C1COc2ccc(C(=O)COC(=O)c3ccc4ccccc4n3)cc2N1` was tested, and the Potency was inconclusive: 44.7 µM [inhibitor, partial curve, poor fit]. For `Cc1ccc(CNc2ccc(O)cc2)cc1`, the Potency was inconclusive: 28.2 µM [inhibitor, full curve, poor fit]. `CCOc1ccc(/C=N/Nc2ccccn2)cc1OC` was tested, and the Potency was inconclusive: 39.8 µM [inhibitor, full curve, poor fit]. For `CCCCc1ccc(NC(=O)Cn2c(=O)c(N3CCCCC3)c(N)n(C)c2=O)cc1`, the Potency was inconclusive: 89.1 µM [inhibitor, single point]. `CCOC(=O)c1sc(N2C(=O)C(O)=C(C(=O)c3ccc(C)o3)C2c2ccc(OC)c(OC)c2)nc1C` (stereo not given) was tested, and the Potency was inconclusive: 44.7 µM [inhibitor, partial curve, poor fit]. With `Cc1ccc(-c2csc3ncnc(SCC(=O)c4ccc5c(c4)OCCO5)c23)cc1` the Potency was “inactive”. In the case of `CCC1NC(=S)NC(C)=C1C(=O)c1ccccc1` (stereo not given), the Potency is reported as inconclusive: 100 µM [inhibitor, single point]. In the case of `COc1ccc(C(=O)NC(C(=O)NCC(=O)Nc2c(C)cccc2C)C(C)C)cc1` (stereo not given), the Potency is reported as inconclusive: 79.4 µM [inhibitor, partial curve, poor fit]. With `COc1ccc(OC)c(NC(=O)Cc2c(C)n(C(=O)c3ccc(Cl)cc3)c3ccc(OC)cc23)c1` the Potency was “inactive”. For `Cc1nc(C)c(-c2csc(NCCc3ccccc3)n2)s1`, the Potency was inconclusive: 70.8 µM [inhibitor, single point]. With `C/C(CCc1ccco1)=N\NC(=O)CNc1cccc2ccccc12` the Potency was inconclusive: 50.1 µM [inhibitor, partial curve, poor fit]. In the case of `COC(=O)[C@H](CC(C)C)NC(=O)c1cc2c(cn1)[nH]c1ccccc12`, the Potency is reported as inconclusive: 100 µM [inhibitor, partial curve, poor fit]. In the case of `CC(=O)Nc1cccn(Cc2c(Cl)cccc2Cl)c1=O`, the Potency is reported as inconclusive: 70.8 µM [inhibitor, partial curve, poor fit]. In the case of `Nc1ncnc2c1c(I)cn2C1OC(CO)C(O)C1O` (stereo not given), the Potency is reported as inconclusive: 9.47 µM [inhibitor, partial curve, poor fit]. In the case of `O=C(C[C@H]1C[C@H](C(=O)N2CCOCC2)[C@@]2(CCC3CCCC3)c3[nH]c4cc(-c5ccco5)ccc4c3CCN2C1=O)NCCC1=CCCCC1`, the Potency is reported as inconclusive: 20 µM [inhibitor, full curve, poor fit]. For `O=C(NCCCNC(=O)c1cncc(O)c1)c1cncc(O)c1`, the Potency was inconclusive: 44.7 µM [inhibitor, partial curve, poor fit]. `COc1ccccc1CNc1nc2ccccc2n1CCN1CCCCC1` was tested, and the Potency was “inactive”. `O=C(O)Cc1ccc(O)c(O)c1` was tested, and the Potency was inconclusive: 37.7 µM [inhibitor, single point]. `CCCn1c(SCC(=O)C(C)(C)C)nc2ccccc21` was tested, and the Potency was inconclusive: 50.1 µM [inhibitor, partial curve, poor fit]. With `Cc1ccc(C(=O)CC2C(=O)N(c3ccccc3)C(=S)N2c2ccccc2)cc1` (stereo not given) the Potency was inconclusive: 89.1 µM [inhibitor, partial curve, poor fit]. With `O=C1ON=C(c2cccc([N+](=O)[O-])c2)/C1=C/c1ccc(O)cc1` the Potency was inconclusive: 44.7 µM [inhibitor, partial curve, poor fit]. With `CCn1c(=NC(=O)C2COc3ccccc3O2)sc2c(OC)ccc(OC)c21` (stereo not given) the Potency was “inactive”. In the case of `COc1ccc(CNc2oc(/C=C/c3cccc(OC)c3)nc2C#N)cc1`, the Potency is reported as “inactive”. For `C=CCOc1ccccc1CNc1ccc2[nH]c(=O)[nH]c2c1`, the Potency was inconclusive: 100 µM [inhibitor, single point]. In the case of `CN(Cc1ccc(Cl)cc1)C(=O)COC(=O)CSc1ccc([N+](=O)[O-])cc1`, the Potency is reported as inconclusive: 89.1 µM [inhibitor, single point]. With `COC(=O)c1cc(C)sc1NC(=O)CSc1ncccn1` the Potency was inconclusive: 50.1 µM [inhibitor, partial curve, poor fit]. In the case of `Cc1ccc(O)c(NC(=O)C2CC(c3cccc(Br)c3)=NO2)c1` (stereo not given), the Potency is reported as “inactive”. In the case of `COC(=O)C1=C(C)N=c2s/c(=C/c3ccoc3)c(=O)n2C1c1ccccc1` (stereo not given), the Potency is reported as inconclusive: 100 µM [inhibitor, partial curve, poor fit]. `O=C(O)CN1C(=O)/C(=C\c2ccc(OC(=O)c3ccco3)cc2)SC1=S` was tested, and the Potency was inconclusive: 31.6 µM [inhibitor, partial curve, poor fit]. For `COC(=O)Nc1cc(C(=O)c2ccc(Cl)cc2Cl)c[nH]1`, the Potency was inconclusive: 56.2 µM [inhibitor, partial curve, poor fit]. With `Cc1cc(C)nc(N/N=C/C=C/c2ccccc2)n1` the Potency was “inactive”. In the case of `CC(=O)c1ccc(OCc2cc(C(=O)N(C)C3CCOC3)no2)cc1` (stereo not given), the Potency is reported as “inactive”. In the case of `Cc1cc(C)c(S(=O)(=O)NCC23C=CC(O2)C2C(=O)N(c4ccccc4)C(=O)C23)c(C)c1` (stereo not given), the Potency is reported as inconclusive: 79.4 µM [inhibitor, partial curve, poor fit]. For `O=C1ON=C(c2ccccc2)/C1=C/c1ccc(-c2ccccc2[N+](=O)[O-])o1`, the Potency was inconclusive: 20 µM [inhibitor, full curve, poor fit].

Reference: PubChem BioAssay AID504845 (National Center for Advancing Translational Sciences (NCATS), 2011)
Further: nearly all actives have a fitted effect of over 75% in size.
On the % scale 0 is the no-effect control and ±100 the full control effect; potency means the concentration at half of the fitted maximal effect; tags describe the fitted curve by direction and shape.
